# Results published in the supplement of paper PMC8728848.
# Some of the results follow.
# B1: Gal 8 (Homo sapiens), O00214 (protein)
# chain: MMLSLNNLQNIIYNPVIPFVGTIPDQLDPGTLIVIRGHVPSDADRFQVDLQNGSSMKPRADVAFHFNPRFKRAGCIVCNTLINEKWGREEITYDTPFKREKSFEIVIMVKDKFQVAVNGKHTLLYGHRIGPEKIDTLGIYGKVNIHSIGFSFSSDLQSTQASSLELTEISRENVPKSGTPQLPSNRGGDISKIAPRTVYTKSKDSTVNHTLTCTKIPPMNYVSKRLPFAARLNTPMGPGRTVVVKGEVNANAKSFNVDLLAGKSKDIALHLNPRLNIKAFVRNSFLQESWGEEERNITSFPFSPGMYFEMIIYCDVREFKVAVNGVHSLEYKHRFKELSSIDTLEINGDIHLLEVRSW
# Key:
# Assay in all cases: glycan array binding signal (z-score within array); higher = stronger binding
# Conditions in all cases: glycan notation: IUPAC condensed, linker removed
# [1] = target: Gal(b1-4)GlcNAc(b1-3)Gal(b1-4)GlcNAc(b1-3)Gal(b1-4)GlcNAc
# Outline: (§1)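 The binding signal is a Z-score computed within each array and averaged over linkers. Arrays of the same protein sequence at different concentrations or buffers were also averaged together. Data originate from 3228 arrays in the Consortium for Functional Glycomics database, kept only where the protein sequence was available.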
# [2] = target: Gal(b1-4)GlcNAc(b1-3)Gal(b1-4)[Fuc(a1-3)]GlcNAc(b1-3)Gal(b1-4)[Fuc(a1-3)]GlcNAc
# Outline: as §1
# [3] = target: Gal(b1-4)GlcNAc(b1-3)GalNAc
# Outline: as §1
# [4] = target: Gal(b1-4)GlcNAc(b1-3)[Gal(b1-4)GlcNAc(b1-6)]Gal(b1-4)GlcNAc
# Outline: as §1
# [5] = target: Gal(b1-4)GlcNAc(b1-3)[GlcNAc(b1-6)]Gal(b1-4)GlcNAc
# Outline: as §1
# [6] = target: Gal(b1-4)GlcNAc(b1-6)Gal(b1-4)GlcNAc
# Outline: as §1
# [7] = target: Gal(b1-4)GlcNAc(b1-6)Gal(b1-4)GlcNAc(b1-6)GalNAc
# Outline: as §1
# [8] = target: Gal(b1-4)GlcNAc(b1-6)GalNAc
# Outline: as §1
# [9] = target: Gal(b1-4)GlcNAc(b1-6)[Gal(b1-3)]GalNAc
# Outline: as §1
# [10] = target: Gal3S(b1-3)GalNAc
# Outline: as §1
# [11] = target: Gal3S(b1-3)GlcNAc
# Outline: as §1
# [12] = target: Gal3S(b1-3)[Fuc(a1-4)]GlcNAc
# Outline: as §1
# [13] = target: Gal3S(b1-4)Glc
# Outline: as §1
# [14] = target: Gal3S(b1-4)Glc6S
# Outline: as §1
# [15] = target: Gal3S(b1-4)GlcNAc
# Outline: as §1
# [16] = target: Gal3S(b1-4)GlcNAc6S
# Outline: as §1
# [17] = target: Gal3S(b1-4)[Fuc(a1-3)]Glc
# Outline: as §1
# [18] = target: Gal3S4S(b1-4)GlcNAc
# Outline: as §1
# [19] = target: Gal3S6S(b1-4)GlcNAc
# Outline: as §1
# [20] = target: Gal3S6S(b1-4)GlcNAc6S
# Outline: as §1
# [21] = target: Gal4S(b1-4)GlcNAc
# Outline: as §1
# [22] = target: Gal4S6S(b1-4)GlcNAc
# Outline: as §1
# [23] = target: Gal6S(b1-4)Glc
# Outline: as §1
# [24] = target: Gal6S(b1-4)Glc6S
# Outline: as §1
# [25] = target: Gal6S(b1-4)GlcNAc
# Outline: as §1
# [26] = target: Gal6S(b1-4)GlcNAc6S
# Outline: as §1
# [27] = target: GalNAc(a1-3)Gal
# Outline: as §1
# [28] = target: GalNAc(a1-3)GalNAc
# Outline: as §1
# [29] = target: GalNAc(b1-3)Gal
# Outline: as §1
# [30] = target: GalNAc(b1-3)Gal(a1-4)Gal(b1-4)GlcNAc
# Outline: as §1
# [31] = target: GalNAc(b1-3)GalNAc
# Outline: as §1
# [32] = target: GalNAc(b1-4)GlcNAc
# Outline: as §1
# [33] = target: Glc(a1-4)Glc
# Outline: as §1
# [34] = target: Glc(a1-6)Glc(a1-6)Glc
# Outline: as §1
# [35] = target: Glc(b1-4)Glc
# Outline: as §1
# [36] = target: Glc(b1-6)Glc
# Outline: as §1
# [37] = target: GlcA(b1-3)Gal
# Outline: as §1
binder,measurement,setting,value
B1,glycan array binding signal (z-score),[1],2.07
same,glycan array binding signal (z-score),[2],0.493
same,glycan array binding signal (z-score),[3],0.139
same,glycan array binding signal (z-score),[4],0.245
same,glycan array binding signal (z-score),[5],0.199
same,glycan array binding signal (z-score),[6],0.216
same,glycan array binding signal (z-score),[7],0.186
same,glycan array binding signal (z-score),[8],-0.143
same,glycan array binding signal (z-score),[9],0.333
same,glycan array binding signal (z-score),[10],0.823
same,glycan array binding signal (z-score),[11],0.41
same,glycan array binding signal (z-score),[12],-0.42
same,glycan array binding signal (z-score),[13],0.286
same,glycan array binding signal (z-score),[14],1.18
same,glycan array binding signal (z-score),[15],0.094
same,glycan array binding signal (z-score),[16],0.678
same,glycan array binding signal (z-score),[17],-0.432
same,glycan array binding signal (z-score),[18],-0.396
same,glycan array binding signal (z-score),[19],-0.451
same,glycan array binding signal (z-score),[20],-0.346
same,glycan array binding signal (z-score),[21],-0.395
same,glycan array binding signal (z-score),[22],-0.431
same,glycan array binding signal (z-score),[23],-0.368
same,glycan array binding signal (z-score),[24],-0.419
same,glycan array binding signal (z-score),[25],-0.392
same,glycan array binding signal (z-score),[26],-0.439
same,glycan array binding signal (z-score),[27],-0.427
same,glycan array binding signal (z-score),[28],-0.42
same,glycan array binding signal (z-score),[29],0.446
same,glycan array binding signal (z-score),[30],0.145
same,glycan array binding signal (z-score),[31],-0.451
same,glycan array binding signal (z-score),[32],-0.415
same,glycan array binding signal (z-score),[33],-0.443
same,glycan array binding signal (z-score),[34],-0.438
same,glycan array binding signal (z-score),[35],-0.447
same,glycan array binding signal (z-score),[36],-0.441
same,glycan array binding signal (z-score),[37],-0.451
